Source: the supplement of paper PMC3334620
Whole data set: some 33,000 sequences, median “E-score (-0.5 to 0.5)” near -0.054, cut for the highest 2% near 0.35. The list shows a part of the results.

molecular target: T1, Stb5 (UniProt P38699); test: PBM E-score (8-mer binding enrichment) (E-score (-0.5 to 0.5)); higher = stronger / more preferred TF binding; most listed sequences are background and not binding sites; settings: protein concentration: 200 nM; construct: GST-full length
T1 sequence: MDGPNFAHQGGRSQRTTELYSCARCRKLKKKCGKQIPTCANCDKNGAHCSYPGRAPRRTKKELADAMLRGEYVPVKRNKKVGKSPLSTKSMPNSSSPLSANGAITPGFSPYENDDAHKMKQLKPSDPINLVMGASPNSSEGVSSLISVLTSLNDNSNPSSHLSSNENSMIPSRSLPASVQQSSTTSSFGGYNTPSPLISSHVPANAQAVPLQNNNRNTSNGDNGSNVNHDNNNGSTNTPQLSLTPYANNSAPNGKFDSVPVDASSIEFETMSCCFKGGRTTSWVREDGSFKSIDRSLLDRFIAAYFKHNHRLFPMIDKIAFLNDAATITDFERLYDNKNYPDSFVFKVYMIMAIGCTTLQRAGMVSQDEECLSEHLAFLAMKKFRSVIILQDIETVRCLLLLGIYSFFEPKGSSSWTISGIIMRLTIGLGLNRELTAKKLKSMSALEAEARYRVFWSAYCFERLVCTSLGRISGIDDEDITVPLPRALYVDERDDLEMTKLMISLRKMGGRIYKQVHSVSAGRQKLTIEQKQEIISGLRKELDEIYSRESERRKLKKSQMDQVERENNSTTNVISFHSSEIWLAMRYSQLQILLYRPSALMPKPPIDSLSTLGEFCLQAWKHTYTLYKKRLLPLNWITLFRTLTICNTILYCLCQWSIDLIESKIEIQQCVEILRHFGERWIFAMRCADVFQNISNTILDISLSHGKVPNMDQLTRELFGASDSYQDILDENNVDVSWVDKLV
Protocol: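 Universal 'all 10-mer' protein binding microarrays (Agilent AMADID 015681) probed with GST-tagged S. cerevisiae TFs (full-length or DBD) made by in vitro transcription/translation (PURExpress), about 100-200 nM. Bound TF was detected with fluorescent anti-GST. Each ungapped 8-mer (which stands for itself and its reverse complement) is scored by the PBM enrichment score (E-score), a modified Wilcoxon-Mann-Whitney statistic from -0.5 to +0.5, computed with the Universal PBM Analysis Suite. Scale: above 0.35 generally sequence-specific binding.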

Sequence	PBM E-score
AGACTCAG	-0.115
AGGACTGC	-0.385
CACCGATG	0.357
CCCGATTA	0.211
AAAATCAG	-0.128
ATGGATTG	-0.041
CTTATCAA	-0.125
CTCTTATC	-0.11
CAAGGTAA	0.0554
AGTACTAC	-0.267
GCTCTACA	-0.0127
GGCTGGCA	-0.107
AGAGAAGC	-0.27
AACCATCA	-0.0995
ATTCATAC	0.0518
CTAAAAAA	0.252
ATGCAAAT	-0.155
ATGAGTGC	0.0822
GATTTTAA	0.128
ACAACAGG	-0.0624
CCGTTGAC	0.234
ACCGTCTC	0.0885
ACACCTAC	0.093
AAAGATCA	-0.192
ATCAAGGA	-0.12

Sequence	PBM E-score
ACCGACCA	0.332
ATGTAAAA	-0.0462
CCTTTCCC	-0.0122
CTGGTGTA	-0.0635
CCATCTCG	-0.166
ACGATTGG	-0.278
ATGCCTTC	-0.141
AGGGAGCG	-0.0929
AGCGGTTA	0.122
ATATTCAT	-0.129
CATACCGG	0.193
ATTTTGGC	0.00659
ACAGGCCA	-0.22
ACTGGTTA	-0.11
ACTTTAAC	0.0115
CAGTTGTA	-0.064
CGTCAATC	-0.118
ATATCCCA	0.05
AGAAGTAG	-0.188
GTACAAAA	0.0684
TACCCCGA	0.407
ACTCAAGG	-0.223
CAACGTTC	-0.0112
ATTTCACC	0.263
AGGTTGGA	-0.0328

Sequence	PBM E-score
CTTTCCTA	-0.141
ATCGTGTG	-0.117
CTGTTGAA	-0.0776
ACTATATC	0.0952
GTCGGATA	0.371
ATGGAGAG	-0.123
CGAGGCCA	-0.229
CATAGCTA	-0.27
AATCTCCT	-0.0106
GGGGACCC	-0.145
AGGCGACG	-0.112
CCCGTGAC	0.155
GATTGCGC	0.0307
TCAGTCAA	-0.197
CGCGGAAC	0.263
ACAGCCAA	-0.222
GGCGACAA	0.0916
CAGGGCGC	0.00472
CCCTAAGG	-0.167
AGTGTAAG	-0.174
ACAAGGGC	-0.0351
AGCGGAGA	0.236
ACCTGTGC	-0.236
GGTTGCTA	-0.071
CGAGTGAG	-0.128

Sequence	PBM E-score
GTCTTCGA	-0.208
AAGAGTGA	-0.258
TCTCCAGA	-0.00743
CTACCAAA	-0.0199
GCGTCATA	-0.0207
AGAACACT	-0.173
ATAGCGAG	0.156
GACAGGGC	-0.0555
GACTGGGA	-0.13
ACTCAGCA	-0.188
AGGTCAAA	-0.19
CTCGTCGC	-0.247
CTCCCAAC	-0.123
ACTCTCAG	-0.263
GACAAGCC	0.0151
CGTCGACA	0.0273
ACCCTGCT	-0.0888
CATACAAG	-0.204
GGAATTAA	0.252
CCGGAAAC	0.141
GGTCAGAA	0.135
CCATGAGC	-0.222
ATGTGTTG	-0.3
CTCCGAAC	0.269
AACCCGCA	0.229

Sequence	PBM E-score
AGGCTTGG	-0.247
ATAAATCG	0.0618
AGAAAGTC	0.0727
GAGTCGAC	-0.119
ACATAGTC	0.047
CACAGCCC	-0.104
CAAACCGA	-0.0495
GTGAAGGA	-0.186
ATGAACAC	0.0123
ACGAAAAT	-0.145
AAAAATTT	-0.0291
GCAAAGAA	0.0661
ATACGATG	-0.089
AGGGCAAG	-0.118
GCTTCGCA	-0.2
AACAGGGG	-0.156
GAGCGAGC	-0.0655
ACGTATGG	0.0298
ACTTCAAG	-0.273
ACTGTCTA	-0.211
AGTGCGAG	-0.223
GACTCCTC	-0.225
AGAGGCCA	-0.262
TCGTCTAA	-0.136
CCGGGATC	0.271

Sequence	PBM E-score
ATCGTGGG	-0.0717
TGTCCCAA	-0.0294
AGCCCGAT	0.328
ATAGTCTG	-0.219
CGTATCTC	0.136
AGCGGTAA	0.34
AGTTAGCA	-0.0967
ACTATACG	0.0851
ATAGGCAC	-0.0742
ACAATAGG	-0.0557
ACCAGAGG	-0.206
AATGCATA	-0.146
AATAAAGA	0.0352
ATAAGTCA	-0.166
TCTGAGAA	-0.317
ACTTATAA	0.186
CAAGCCCG	0.255
ATCGCGAG	-0.0644
AGTAGCAG	-0.241
GAAGTTAC	-0.044
GATTGTAC	-0.14
CCAATACA	-0.126
TACCAGCA	-0.165
ATCATTCG	-0.151
CACCATAA	-0.0593

Sequence	PBM E-score
GGGAGCAC	-0.00488
GTATTTTA	0.13
ACCTGTGA	-0.252
AGGTGTGG	-0.133
GTCTAGGA	-0.0791
AGATGGCG	0.0174
CAAGCCGC	0.00962
CCCTGCCC	-0.31
GCTTTGTA	-0.0417
ATTGCATG	-0.21
ACTTTGAG	-0.172
AGTAAATG	0.137
AACGATCC	-0.145
ACGGTACA	0.112
ATCCCGTC	0.262
CAGTCCTC	-0.284
AAGGGGGT	-0.0621
AATGGTCG	0.0414
TCATGAGA	-0.117
CAAAGGAG	-0.189
CATGACGA	-0.12
ATAAAGAG	-0.0867
